Test results reported in US10640563B2, “Anti-B7-H3 antibodies and antibody drug conjugates” (AbbVie Inc., priority 2016, dated 2020).

B1: huAb13v1-XW (conjugate)
heavy: EVQLQESGPGLVKPSETLSLTCAVTGYSITSGYSWHWIRQFPGNGLEWMGYIHSSGSTNYNPSLKSRISISRDTSKNQFFLKLSSVTAADTAVYYCAGYDDYFEYWGQGTTVTVSSASTKGPSVFPLAPSSKSTSGGTAALGCLVKDYFPEPVTVSWNSGALTSGVHTFPAVLQSSGLYSLSSVVTVPSSSLGTQTYICNVNHKPSNTKVDKKV[letters of human IgG1 Fc with changes omitted]
light: DIQMTQSPSSLSASVGDRVTITCKASQNVGFNVAWYQQKPGKSPKALIYSASYRYSGVPSRFSGSGSGTDFTLTISSLQPEDFAEYFCQQYNWYPFTFGQGTKLEIKRTVAAPSVFIFPPSDEQLKSGTASVVCLLNNFYPREAKVQWKVDNALQSGNSQESVTEQDSKDSTYSLSSTLTLSKADYEKHKVYACEVTHQGLSSPVTKSFNRGEC
B2: huAb3v2.5-XW (conjugate)
heavy: EVQLVQSGAEVKKPGSSVKVSCKASGYTFSSYWMHWVRQAPGQGLEWIGLIHPESGSTNYNEMFKNRATLTVDRSTSTAYMELSSLRSEDTAVYYCAGGGRLYFDYWGQGTTVTVSSASTKGPSVFPLAPSSKSTSGGTAALGCLVKDYFPEPVTVSWNSGALTSGVHTFPAVLQSSGLYSLSSVVTVPSSSLGTQTYICNVNHKPSNTKVDKKV[letters of human IgG1 Fc with changes omitted]
light: DIVMTQSPLSLPVTPGEPASISCRSSQSLVHSNRDTYLRWYLQKPGQSPQLLIYKVSNRFSGVPDRFSGSGSGTDFTLKISRVEAEDVGVYYCSQSTHVPYTFGGGTKVEIKRTVAAPSVFIFPPSDEQLKSGTASVVCLLNNFYPREAKVQWKVDNALQSGNSQESVTEQDSKDSTYSLSSTLTLSKADYEKHKVYACEVTHQGLSSPVTKSFNRGEC
B3: huAb3v2.6-AAA (conjugate)
heavy: EVQLVQSGAEVKKPGSSVKVSCKASGYTFSSYWMHWVRQAPGQGLEWIGLIHPESGSTNYNEMFKNRATLTVDRSTSTAYMELSSLRSEDTAVYYCAGGGRLYFDYWGQGTTVTVSSASTKGPSVFPLAPSSKSTSGGTAALGCLVKDYFPEPVTVSWNSGALTSGVHTFPAVLQSSGLYSLSSVVTVPSSSLGTQTYICNVNHKPSNTKVDKKV[letters of human IgG1 Fc with changes omitted]
light: B2 light with R34Q
B4: huAb3v2.6-XW (conjugate)
heavy: EVQLVQSGAEVKKPGSSVKVSCKASGYTFSSYWMHWVRQAPGQGLEWIGLIHPESGSTNYNEMFKNRATLTVDRSTSTAYMELSSLRSEDTAVYYCAGGGRLYFDYWGQGTTVTVSSASTKGPSVFPLAPSSKSTSGGTAALGCLVKDYFPEPVTVSWNSGALTSGVHTFPAVLQSSGLYSLSSVVTVPSSSLGTQTYICNVNHKPSNTKVDKKV[letters of human IgG1 Fc with changes omitted]
light: B2 light with R34Q

System: NCI-H146 cells
Assay: In vivo xenograft model of small cell lung cancer (NCI-H146)
Set-up: species or system mice
Details: Table 24; 6 mg/kg/IP/QDx1

Row | Molecule | TGImax (%)
1 | B1 | 35%
2 | B2 | 51%
3 | B3 | 47%
4 | B4 | 43%

System: not listed separately
Assay: DAR of ADC by LC-MS
Details: ADC as conjugated (Method A, E or G)
Description: The DAR and percentage aggregation of ADCs synthesized were determined by LC-MS and size exclusion chromatography (SEC), respectively.
LC-MS analysis was performed using an Agilent 1100 HPLC system interfaced to an Agilent LC/MSD TOF 6220 ESI mass spectrometer. The ADC was reduced with 5 mM (final concentration) Bond-Breaker® TCEP solution (Thermo Scientific, Rockford, Ill.), loaded onto a Protein Microtrap (Michrom Bioresorces, Auburn, Calif.) desalting cartridge, and eluted with a gradient of 10% B to 75% B in 0.2 minutes at ambient temperature. Mobile phase A was H2O with 0.1% formic acid (FA), mobile phase B was acetonitrile with 0.1% FA, and the flow rate was 0.2 mL/min. Electrospray-ionization time-of-flight mass spectra of the co-eluting light and heavy chains were acquired using Agilent MassHunter™ acquisition software. The extracted intensity vs. m/z spectrum was deconvoluted using the Maximum Entropy feature of MassHunter software to determine the mass of each reduced antibody fragment. DAR was calculated from the deconvoluted spectrum by summing intensities of the naked and modified peaks for the light chain and heavy chain, normalized by multiplying intensity by the number of drugs attached. The summed, normalized intensities were divided by the sum of the intensities, and the summing results for two light chains and two heavy chains produced a final average DAR value for the full ADC.

Row | Molecule | DAR by MS
5 | B1 | 4.3
6 | B2 | 3.9
7 | B3 | 1.9
8 | B4 | 4

System: not listed separately
Assay: Aggregation of conjugates by SEC
Assay type: physicochemical
Details: ADC as conjugated (Method A, E or G)

Row | Molecule | % agg by SEC
9 | B1 | 6.3%
10 | B2 | 16.4%
11 | B3 | 20.2%
12 | B4 | 16.8%

Residue numbers refer to the chain shown, from its start.
